Source: publication PMC10929172
No constants are given. Whether binding was seen depends on the method and setting. In cells and extracts the contact can be indirect. Some results given as binding are weak or reduced against the parent protein; the word gives no strength.

Amino acid sequences for entries named in this document (tags omitted). A change or cut given only in a name is not applied to a line headed by its entry. Chains listed by the source or under a name are the forms on record and can include a tag or linker. Residues count along the entry.
UniProt P09936: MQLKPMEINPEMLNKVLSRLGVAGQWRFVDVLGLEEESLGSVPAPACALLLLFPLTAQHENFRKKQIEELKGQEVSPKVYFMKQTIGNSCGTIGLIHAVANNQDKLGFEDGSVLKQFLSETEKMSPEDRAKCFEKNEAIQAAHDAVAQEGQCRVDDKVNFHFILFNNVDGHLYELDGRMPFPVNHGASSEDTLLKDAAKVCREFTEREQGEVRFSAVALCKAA
UniProt Q13887: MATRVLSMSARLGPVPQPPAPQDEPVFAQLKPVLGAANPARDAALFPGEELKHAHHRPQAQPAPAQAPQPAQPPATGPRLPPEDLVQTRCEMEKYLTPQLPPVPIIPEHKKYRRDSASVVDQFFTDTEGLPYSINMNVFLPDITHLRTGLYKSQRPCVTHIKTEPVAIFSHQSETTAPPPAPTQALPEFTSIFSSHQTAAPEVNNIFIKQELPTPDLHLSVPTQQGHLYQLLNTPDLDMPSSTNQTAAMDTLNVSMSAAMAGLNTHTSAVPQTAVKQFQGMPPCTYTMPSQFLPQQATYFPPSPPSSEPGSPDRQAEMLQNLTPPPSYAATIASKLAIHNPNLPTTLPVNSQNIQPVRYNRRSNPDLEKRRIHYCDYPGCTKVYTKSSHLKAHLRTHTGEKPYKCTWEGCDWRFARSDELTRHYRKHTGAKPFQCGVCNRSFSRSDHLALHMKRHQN
KLF5-FL1 (1-312), C-terminal 3xFlag tagged (human (from RefSeq NM_001730)): residues 1-312 of Q13887
KLF5-FL2 (313-457), C-terminal 3xFlag tagged (human (from RefSeq NM_001730)): residues 313-457 of Q13887

How the values were obtained:
[1] = target: Ubiquitin carboxyl-terminal hydrolase L1 (UCHL1), endogenous (human (endogenous in MDA-MB-468 and SUM149)) (UniProt P09936); assay: co-IP; endogenous proteins of MDA-MB-468 and SUM149 lysates precipitated with rabbit anti-KLF5 or anti-UCHL1, Protein A Sepharose; detected with mouse anti-UCHL1 or anti-KLF5; rabbit IgG as negative control
[2] = target: C-terminal 3xFlag tagged full-length KLF5 (human (from RefSeq NM_001730)) (UniProt Q13887); assay: co-IP; FLAG-tagged full-length KLF5 or fragments and Myc-UCHL1 co-transfected into MDA-MB-468 cells; immunoprecipitation with FLAG-M2 beads
[3] = target: KLF5-FL1 (1-312), C-terminal 3xFlag tagged (human (from RefSeq NM_001730)) (UniProt Q13887); assay: as above
[4] = target: KLF5-FL2 (313-457), C-terminal 3xFlag tagged (human (from RefSeq NM_001730)) (UniProt Q13887); assay: as above
[5] = target: KLF5, endogenous (human (endogenous in MDA-MB-468 and SUM149)) (UniProt Q13887); assay: co-IP; cells overexpressing UCHL1 (C90S); Supplementary Fig. 3A; which protein was precipitated is not told
[6] = target: KLF5, endogenous (human (endogenous in MDA-MB-468 and SUM149)) (UniProt Q13887); assay: co-IP; endogenous proteins of MDA-MB-468 and SUM149 lysates precipitated with rabbit anti-KLF5 or anti-UCHL1, Protein A Sepharose; detected with mouse anti-UCHL1 or anti-KLF5; rabbit IgG as negative control

Substance: KLF5, endogenous (from UniProt Q13887-1 1-457)
- binding [1]: binds

Substance: Myc-tagged UCHL1 (from UniProt P09936-1 1-223) (enzyme)
- binding [2]: binds
- binding [3]: no binding
- binding [4]: binds

Substance: UCHL1 (C90S) (from UniProt P09936-1 1-223) (enzyme)
- binding [5]: binds

Substance: Ubiquitin carboxyl-terminal hydrolase L1 (UCHL1), endogenous (from UniProt P09936-1 1-223) (enzyme)
- binding [6]: binds
